From the supplement of paper PMC3334620
The full ranking holds about 33,000 sequences; the median of “E-score (-0.5 to 0.5)” is about -0.01, and the highest 2% start at about 0.26. The list shows a part of the results.

target: Ste12 (UniProt P13574); assay: PBM E-score (8-mer binding enrichment) (E-score (-0.5 to 0.5)); higher = stronger / more preferred TF binding; most listed sequences are background and not binding sites; settings: protein concentration: 200 nM; construct: GST-DNA-binding domain
Description: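 Universal 'all 10-mer' protein binding microarrays (Agilent AMADID 015681) probed with GST-tagged S. cerevisiae TFs (full-length or DBD) made by in vitro transcription/translation (PURExpress), about 100-200 nM. Bound TF was detected with fluorescent anti-GST. Each ungapped 8-mer (which stands for itself and its reverse complement) is scored by the PBM enrichment score (E-score), a modified Wilcoxon-Mann-Whitney statistic from -0.5 to +0.5, computed with the Universal PBM Analysis Suite. Scale: above 0.35 generally sequence-specific binding.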

| Sequence | PBM E-score |
| --- | --- |
| AATCCAGA | 0.187 |
| ATGCGGCG | -0.031 |
| GTCCTGAA | -0.0225 |
| AGCCCGGG | -0.112 |
| GCGGGGTA | 0.143 |
| AATCGCCC | -0.23 |
| AGGATCAT | -0.11 |
| GAATGCAC | 0.0659 |
| ACCCGCTC | -0.09 |
| ATGGATCG | -0.059 |
| GCTGCTCA | -0.123 |
| CACAAGAG | 0.0242 |
| CGCAAAGA | 0.141 |
| ATTAATGC | 0.161 |
| GAAGCCAA | 0.0219 |
| AGAACTAC | 0.0756 |
| CACCGCTG | -0.0676 |
| CGACAAGA | 0.00247 |
| CTCACTCA | 0.11 |
| TGCGCGCA | 0.151 |
| ATCCTTCC | -0.303 |
| ATGGCTCG | 0.0164 |
| CAGCATGC | -0.0492 |
| GGCACTCA | -0.142 |
| ATAGGGAA | -0.037 |

| Sequence | PBM E-score |
| --- | --- |
| CCTAGCAC | 0.0623 |
| AATGACAC | 0.0352 |
| GGTAGGAC | -0.169 |
| AGGTCACG | -0.132 |
| ATATTAGC | 0.0763 |
| ATAGCGGC | -0.0116 |
| AATGGCAA | 0.129 |
| AGACGCTA | -0.171 |
| CCCGCCTC | 0.0992 |
| CCCGGAAG | 0.0329 |
| CATAGAGA | -0.0324 |
| CCGGACAG | 0.0528 |
| ACCACCGC | -0.093 |
| CAATTACA | 0.146 |
| CTGTACAC | 0.0482 |
| ACGTTCAC | -0.214 |
| ACTATAGC | -0.0742 |
| CGGAAATC | 0.0175 |
| CCAGATGG | -0.0216 |
| CCATCTAC | -0.125 |
| CTCGACGC | 0.0498 |
| TAAGATTA | 0.0386 |
| CCCTTATC | -0.129 |
| TAGGTCGA | -0.00032 |
| GACAACGA | -0.133 |

| Sequence | PBM E-score |
| --- | --- |
| ATCAATAC | -0.00457 |
| GAGATGCC | -0.115 |
| ATAGTGGA | -0.155 |
| CATCGTGA | -0.0559 |
| CGTTCGTC | -0.0659 |
| CTGTGAAC | -0.0759 |
| CTTTAGCC | -0.029 |
| GGCCCCTA | -0.0347 |
| ACTCACTA | 0.0226 |
| ATCGGCAG | -0.0528 |
| GTAGGCTA | -0.298 |
| ATACAACA | 0.0533 |
| ACAAACGG | 0.116 |
| AGAGCTCC | -0.148 |
| AAGTGGGT | 0.08 |
| ACCAACGT | -0.0825 |
| CGTGAAGC | -0.228 |
| TGAGGAAA | 0.0852 |
| AAGCGCGT | 0.00023 |
| AAGAGTAG | -0.0605 |
| ACATTCGC | -0.00727 |
| CCGGACCC | 0.0177 |
| CAGTTAAG | 0.041 |
| ACGGCTAC | -0.102 |
| AGTTTCAG | 0.464 |

| Sequence | PBM E-score |
| --- | --- |
| ACCGGTCT | -0.154 |
| AAGGACGC | -0.199 |
| ATGAAAAA | 0.305 |
| ATCTACAA | -0.00908 |
| CACCATGG | -0.171 |
| GTAATCTA | 0.118 |
| ACGCGCTC | -0.0293 |
| TGCTATAA | -0.0901 |
| AATAAATT | 0.191 |
| ACATGCGC | 0.0319 |
| AAGGGGAC | -0.199 |
| CACATGCA | -0.0548 |
| AAGTGGAC | -0.011 |
| ATAGTGAG | 0.059 |
| CCCTGTCG | -0.0419 |
| AGCCTAAA | -0.0349 |
| ATCAGGTA | 0.144 |
| GTAAGTAA | 0.0614 |
| CGAGTAGC | -0.0814 |
| GTAGATCA | 0.023 |
| GAGATAAC | 0.0702 |
| ATAGAGAC | -0.025 |
| ATACAGAC | 0.0198 |
| TACCTGGA | -0.0387 |
| AGCTTCAC | -0.269 |

| Sequence | PBM E-score |
| --- | --- |
| CTTATTCC | -0.0244 |
| CGGCGACC | -0.0757 |
| ACTTAACC | 0.00417 |
| GAGCTCCC | -0.0992 |
| ATCAGGAG | 0.0409 |
| AGCGCCAC | -0.0709 |
| AAAAGATC | 0.108 |
| TGAAGTAA | 0.124 |
| GGTCGTAA | -0.0195 |
| ACTCTCTG | -0.104 |
| ATTTGTTC | 0.266 |
| CGCACGCC | -0.00703 |
| AGGATTAG | -0.034 |
| AAGGTGCG | -0.186 |
| CCGGGACA | 0.114 |
| GCTGTACC | -0.0864 |
| ACTCAGAA | 0.156 |
| AGGTTAAT | 0.0966 |
| AACGAGGG | 0.0911 |
| CTTATCTC | 0.0842 |
| CAGACCTG | -0.146 |
| AAAGCAGT | 0.19 |
| GAGACAAC | 0.0366 |
| AGCTTACC | -0.0898 |
| CCATCATA | -0.00778 |

| Sequence | PBM E-score |
| --- | --- |
| GAGGTGAC | 0.154 |
| CGGAATGC | 0.12 |
| ACGTCACG | -0.0725 |
| AATGGCCC | -0.174 |
| GAGTGTCC | -0.141 |
| AATAACCT | -0.0659 |
| AGGCATAC | -0.305 |
| ACATTCAA | 0.0818 |
| CGCTCACC | 0.0234 |
| GCTATACC | 0.0717 |
| AGCACCTG | -0.15 |
| AACGGTCC | -0.193 |
| AAACAAGC | 0.202 |
| ACCTGCCC | -0.0454 |
| AATGCCAA | 0.0861 |
| TACTCGCA | -0.13 |
| AAGCTACC | -0.0906 |
| ACACTCAA | 0.215 |
| GTTACGGA | -0.0504 |
| GACATCGA | -0.11 |
| CGCACCGC | 0.0733 |
| ATCGAGGA | 0.117 |
| ATGTATTA | 0.248 |
| GGCCCGAC | 0.15 |
| AACTCTTA | 0.0104 |

| Sequence | PBM E-score |
| --- | --- |
| ACTGGAGA | -0.134 |
| ATCACAAG | 0.0283 |
| TCGATCCA | -0.116 |
| ATGCGCGA | -0.174 |
| ATGCTTGA | -0.0711 |
| AAAGACCC | -0.0691 |
| ATCAGCAA | -0.0435 |
| AGTAGTCA | -0.0774 |
| CGGATCCA | 0.0838 |
| GCTGAAAA | 0.17 |
| AACACCAC | 0.0391 |
| CTATGAAC | -0.0289 |
| GAAGGCTA | -0.133 |
| GACGTGTA | -0.2 |
| AACACGAA | 0.22 |
| CTCCCGGA | 0.057 |
| AAGATGCG | 0.119 |
| CTCTTTTC | 0.163 |
| CTGAGAAA | -0.0117 |
| ATCCGATA | 0.063 |
| GGGTATCA | -0.132 |
| CACGACAA | -0.0629 |
